The supplement of paper PMC4466236
Whole data set: some 33,000 sequences, median “E-score (dimensionless, -0.5 to 0.5)” near -0.058, cut for the highest 2% near 0.35. The list shows a part of the results.

test system: MvaT; assay: PBM 8-mer E-score (mean of HK and ME arrays) (E-score (dimensionless, -0.5 to 0.5)); higher = stronger relative binding preference; most listed sequences are background and not binding sites
Summary of the method: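 Full-length P. aeruginosa MvaT carrying an N-terminal glutathione S-transferase tag was tested by protein binding microarray following a previously described protocol. Two universal double-stranded 60-mer arrays, ME and HK, were used, each with a constant 25-mer primer region and a variable 35-mer region covering all 8-mers. The rank-based E-score is the mean of the two arrays, parsed with a custom script. Its range runs from -0.5 to 0.5 for each 8-mer.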

Sequence | PBM 8-mer E-score
AGCGTCTA | 0.00422
GTCCGTCA | -0.153
AGAAACCT | -0.0335
ACGTGACA | -0.00736
ACTGGACA | -0.0714
GACCGAGC | -0.253
ACTACTCT | 0.113
GCAGGAAA | 0.0142
TGATGAAA | 0.0196
GTGCGAGA | 0.0328
CGGTCGAG | -0.192
CTCTCTCC | -0.0794
CCGGTAGC | -0.144
CTCAGTTA | 0.106
CGAAGAAC | -0.157
AGTCTCTA | -0.00977
AATTAGTA | 0.384
ATTGCACG | 0.182
CTCCCTGC | -0.353
ACACCTCG | 0.0162
GAGGACGA | -0.332
ATGCGGTG | 0.0441
CCTTGAAA | -0.0973
GAACCATA | 0.114
AAGGCACT | -0.132

Sequence | PBM 8-mer E-score
TGAGACAA | 0.0145
TGAGTACA | 0.063
ATAAGCAA | 0.214
CCATTGCG | -0.171
CCCTATGA | -0.138
CTCATTAA | 0.196
TCATTGGA | -0.0649
CCATCGGG | -0.336
AGGTGCAG | -0.248
AGTTGTGC | 0.0313
CCGATTCC | -0.181
GGCTGGTA | -0.0575
GAATTCTC | 0.0201
AGAGCCCA | -0.156
GATCCACC | -0.131
AACGTGGT | -0.121
ATACTGGC | -0.0191
GAAAGCCC | -0.331
ATGAAGAA | 0.111
GCTCATAC | -0.145
CCAGTATA | 0.0458
CCTTAAAA | 0.0816
ATCCATAG | -0.0748
AGTCTATG | 0.142
ATCAAGCA | 0.0739

Sequence | PBM 8-mer E-score
TATGACGA | 0.123
CTGCGGTC | -0.29
AGGACGCG | -0.171
CACGACCG | -0.161
AGCTCGCG | -0.171
ACGCCGAG | -0.173
GAGTCGGA | -0.113
GGTGCAAC | -0.14
ACAAGTTA | 0.338
ACGTCTGC | -0.211
AAAAGACG | 0.148
ATTATCTC | 0.157
CAGTAGAG | -0.108
CTGGCAAG | -0.117
AGCTTATG | 0.045
ATTGTTAC | 0.192
CGGTTCGA | -0.108
AGAGCCGG | -0.212
TAAGGAAA | 0.184
CCTGGTGA | -0.262
AAGTGACT | 0.00519
AACCCGAC | -0.155
CAATCTCC | -0.109
CGGGCGGC | -0.242
GCCAGAGC | -0.213

Sequence | PBM 8-mer E-score
GGCGCAAA | 0.0382
AGCCCAAA | -0.0757
CCCGCCAA | -0.221
AAACTCAA | 0.17
CGAAGCGA | -0.121
ATGTTTCC | 0.125
CGTGGGTC | -0.286
AGAGGGAC | -0.267
ACAGCAGT | -0.0577
ACCAAAGG | -0.0363
CGTTTTAA | 0.23
GCGCGGAC | -0.278
GTAATTTA | 0.388
CCCTGGTC | -0.267
CCCAATGC | -0.147
ACCTGAAT | 0.0683
CGGATGGC | -0.274
ACATTTTA | 0.309
GCGTTCGA | -0.085
CTAGATTC | -0.154
CTAACTCA | 0.084
ATCGAACA | 0.0838
AACGGTTG | 0.0528
ATTCGGGC | -0.0943
CTACTCAC | -0.0655

Sequence | PBM 8-mer E-score
ACTCCACA | 0.0902
AAAGTGAA | 0.107
AGACGGAA | -0.184
ACGAATTA | 0.256
TCCCTAAA | -0.0867
GAGTATAA | 0.273
ACACTACG | -0.101
CAATTGTC | -0.0513
AGTGTCGA | -0.0257
GACTTATA | 0.312
GCATTGTA | 0.129
ATCTCGGA | 0.0606
AAATGCGA | 0.0325
CGGGCTTC | -0.156
ACAGGAAC | -0.0162
TTCATAAA | 0.238
GGCGACGA | -0.0969
CCGCCTCG | -0.207
ACCCACGG | -0.125
AGGTTGTA | 0.172
ACGTGGCA | -0.131
TCTGTTCA | -0.0142
CTATAGGA | -0.0735
ATCCTCCA | -0.167
ACGACTAC | -0.0594

Sequence | PBM 8-mer E-score
GCTGTGAC | -0.182
CGATTGAG | -0.0913
ACTATGAG | 0.0273
GAATTATA | 0.374
CTACTACA | 0.0609
CAACAGTG | -0.069
ACACCCCA | -0.231
GGAAGAAC | -0.162
AATGTCGA | 0.00125
CGTTCGAG | -0.179
ACCACGGC | -0.133
CGACGACA | -0.0109
AGGAGTCA | -0.22
GCAATACC | 0.186
CCTAAGCG | -0.313
GCTGGTGA | -0.107
GCGACCTA | -0.0985
AGGACAAC | -0.0385
ATAAAAGG | 0.119
GAAATTTA | 0.227
AGTCCAAG | 0.0301
TCTATTAA | 0.285
GGAAAGAC | -0.0634
TCATCCGA | -0.0994
CCTCCAAC | -0.207

Sequence | PBM 8-mer E-score
ACGATATA | 0.328
CACAGAAG | -0.0636
ACATGCTC | -0.105
ATATAAGC | 0.311
TAATGGGA | 0.0668
TAGCAGCA | -0.0705
CCGACGCG | -0.268
CCGTGCCA | -0.177
CACGAAAC | -0.0556
GGCAAAAC | -0.049
AGTTGGTC | 0.0575
ATTCGAAA | 0.195
GCCGGCAC | -0.0824
GGATGCAC | -0.17
GGGGCCAC | -0.233
CAAATCGC | 0.0696
GAGGGACC | -0.31
CTTAAGTC | 0.00473
ACGCTCGG | -0.166
AACGCCCT | -0.0945
CGGAGGAG | -0.364
CAACAGCG | -0.0867
